Source: article PMC6215420
These are yes or no findings as the source states them, for the method shown. Some entries that bind do so weakly or less than the wild type.

Experiments:
[1] = biological target: T1, near full-length ADAMTS10 (AF: residues 25-1104) (mouse) (UniProt P58459); assay: two-hybrid; AF (pGBKT7) as bait, RF or Rd1-9 (pGADT7) as prey; stringent conditions: LTAH (-) + 10 mM 3AT; growth after 4 days
T1 sequence: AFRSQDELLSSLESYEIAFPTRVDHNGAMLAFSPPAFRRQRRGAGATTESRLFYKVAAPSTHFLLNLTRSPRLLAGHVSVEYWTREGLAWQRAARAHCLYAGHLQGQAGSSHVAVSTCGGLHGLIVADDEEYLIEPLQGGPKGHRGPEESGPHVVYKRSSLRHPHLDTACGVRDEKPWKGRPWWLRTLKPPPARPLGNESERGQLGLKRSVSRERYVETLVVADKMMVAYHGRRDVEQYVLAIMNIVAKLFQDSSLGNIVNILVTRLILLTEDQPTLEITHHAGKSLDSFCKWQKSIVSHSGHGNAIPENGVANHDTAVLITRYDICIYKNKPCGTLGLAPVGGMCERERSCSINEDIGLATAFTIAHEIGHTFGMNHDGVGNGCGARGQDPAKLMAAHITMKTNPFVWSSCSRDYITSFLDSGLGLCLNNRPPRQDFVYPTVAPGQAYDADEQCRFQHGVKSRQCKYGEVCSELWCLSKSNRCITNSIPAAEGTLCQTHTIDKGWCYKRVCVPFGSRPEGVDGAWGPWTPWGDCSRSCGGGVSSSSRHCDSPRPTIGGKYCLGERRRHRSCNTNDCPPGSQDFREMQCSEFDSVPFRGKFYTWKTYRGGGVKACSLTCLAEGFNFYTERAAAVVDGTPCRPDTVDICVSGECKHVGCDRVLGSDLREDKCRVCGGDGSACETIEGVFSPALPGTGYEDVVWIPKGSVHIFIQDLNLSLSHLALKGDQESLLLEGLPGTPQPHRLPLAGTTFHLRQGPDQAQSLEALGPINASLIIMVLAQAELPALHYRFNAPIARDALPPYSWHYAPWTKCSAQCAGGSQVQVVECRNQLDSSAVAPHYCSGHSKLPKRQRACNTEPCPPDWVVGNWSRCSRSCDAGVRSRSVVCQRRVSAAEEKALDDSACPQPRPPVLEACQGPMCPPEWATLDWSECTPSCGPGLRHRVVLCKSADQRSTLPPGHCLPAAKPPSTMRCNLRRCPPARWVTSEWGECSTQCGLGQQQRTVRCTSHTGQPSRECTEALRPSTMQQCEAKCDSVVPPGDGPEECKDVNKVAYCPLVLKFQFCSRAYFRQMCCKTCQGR

[2] = biological target: T2, ADAMTS10 fragment Ad4 (residues 823-1104) (mouse) (UniProt P58459); assay: two-hybrid; reduced stringency (condition III: LTAH (-) medium with 2 mM 3AT), 30 C, 7 days; bait RF or Ad4, prey AF, Ad4, RF or Rd7
T2 sequence: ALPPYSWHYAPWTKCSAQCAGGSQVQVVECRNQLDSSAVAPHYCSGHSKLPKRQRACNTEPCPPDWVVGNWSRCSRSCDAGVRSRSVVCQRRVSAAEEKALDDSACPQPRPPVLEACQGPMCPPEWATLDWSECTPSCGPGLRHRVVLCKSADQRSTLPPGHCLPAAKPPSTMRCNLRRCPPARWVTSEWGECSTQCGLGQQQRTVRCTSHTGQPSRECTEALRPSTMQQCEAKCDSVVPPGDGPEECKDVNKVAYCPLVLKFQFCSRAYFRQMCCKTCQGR

[3] = biological target: T3, near full-length RECK (RF: residues 27-942) (mouse) (UniProt Q9Z0J1); assay: two-hybrid; RF (pGBKT7) as bait, AF or Ad1-6 (pGADT7) as prey; stringent setting of Fig. 1B, growth on SD (-LTAH) plates with 3AT
T3 sequence: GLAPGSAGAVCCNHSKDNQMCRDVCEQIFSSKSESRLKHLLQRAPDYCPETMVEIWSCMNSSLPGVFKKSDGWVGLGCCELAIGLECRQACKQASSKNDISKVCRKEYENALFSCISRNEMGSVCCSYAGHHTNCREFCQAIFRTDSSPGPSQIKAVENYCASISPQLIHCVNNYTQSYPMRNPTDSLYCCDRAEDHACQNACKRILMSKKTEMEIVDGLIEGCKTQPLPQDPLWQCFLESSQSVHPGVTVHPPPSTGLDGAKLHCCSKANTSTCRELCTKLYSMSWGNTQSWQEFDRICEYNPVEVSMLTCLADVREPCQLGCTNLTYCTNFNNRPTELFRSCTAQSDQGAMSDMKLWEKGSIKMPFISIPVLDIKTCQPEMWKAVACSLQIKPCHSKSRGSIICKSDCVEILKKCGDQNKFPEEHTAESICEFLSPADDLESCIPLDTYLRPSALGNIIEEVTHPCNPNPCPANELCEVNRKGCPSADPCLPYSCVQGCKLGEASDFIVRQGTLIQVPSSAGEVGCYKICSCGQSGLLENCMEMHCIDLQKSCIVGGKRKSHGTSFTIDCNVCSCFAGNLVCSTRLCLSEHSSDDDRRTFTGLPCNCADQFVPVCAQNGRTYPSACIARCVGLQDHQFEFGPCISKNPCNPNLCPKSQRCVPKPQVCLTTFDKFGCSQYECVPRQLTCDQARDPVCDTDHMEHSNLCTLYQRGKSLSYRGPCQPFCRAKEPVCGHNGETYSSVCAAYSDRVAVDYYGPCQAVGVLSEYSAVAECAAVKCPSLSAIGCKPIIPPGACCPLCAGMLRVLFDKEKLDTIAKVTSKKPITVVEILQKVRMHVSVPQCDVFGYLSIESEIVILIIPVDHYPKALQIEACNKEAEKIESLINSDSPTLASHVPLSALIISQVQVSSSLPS

[4] = biological target: T3, near full-length RECK (RF: residues 27-942) (mouse); assay: two-hybrid; reduced stringency (condition III: LTAH (-) medium with 2 mM 3AT), 30 C, 7 days; bait RF or Ad4, prey AF, Ad4, RF or Rd7
[5] = biological target: T3, near full-length RECK (RF: residues 27-942) (mouse); assay: condition: only stringent selection of Fig. 1A and B; two-hybrid; RF (pGBKT7) as bait, AF or Ad1-6 (pGADT7) as prey; stringent setting of Fig. 1B, growth on SD (-LTAH) plates with 3AT
[6] = biological target: T1, near full-length ADAMTS10 (AF: residues 25-1104) (mouse); assay: condition: only stringent selection, LTAH (-) + 10 mM 3AT; two-hybrid; AF (pGBKT7) as bait, RF or Rd1-9 (pGADT7) as prey; stringent conditions: LTAH (-) + 10 mM 3AT; growth after 4 days

B1: RECK fragment Rd7 (residues 349-629) (domain or fragment, UniProt Q9Z0J1 349-629)
chain: GCTNLTYCTNFNNRPTELFRSCTAQSDQGAMSDMKLWEKGSIKMPFISIPVLDIKTCQPEMWKAVACSLQIKPCHSKSRGSIICKSDCVEILKKCGDQNKFPEEHTAESICEFLSPADDLESCIPLDTYLRPSALGNIIEEVTHPCNPNPCPANELCEVNRKGCPSADPCLPYSCVQGCKLGEASDFIVRQGTLIQVPSSAGEVGCYKICSCGQSGLLENCMEMHCIDLQKSCIVGGKRKSHGTSFTIDCNVCSCFAGNLVCSTRLCLSEHSSDDDRRTFT
B1 was tested, and the binding [1] was “binds” and the binding [2] was “binds”.

B2: ADAMTS10 fragment Ad4 (residues 823-1104) (domain or fragment, UniProt P58459 823-1104)
chain: ALPPYSWHYAPWTKCSAQCAGGSQVQVVECRNQLDSSAVAPHYCSGHSKLPKRQRACNTEPCPPDWVVGNWSRCSRSCDAGVRSRSVVCQRRVSAAEEKALDDSACPQPRPPVLEACQGPMCPPEWATLDWSECTPSCGPGLRHRVVLCKSADQRSTLPPGHCLPAAKPPSTMRCNLRRCPPARWVTSEWGECSTQCGLGQQQRTVRCTSHTGQPSRECTEALRPSTMQQCEAKCDSVVPPGDGPEECKDVNKVAYCPLVLKFQFCSRAYFRQMCCKTCQGR
In the case of B2, the binding [3] is reported as “binds”.

B3: ADAMTS10 fragment Ad3 (residues 691-1104) (domain or fragment, UniProt P58459 691-1104)
chain: REDKCRVCGGDGSACETIEGVFSPALPGTGYEDVVWIPKGSVHIFIQDLNLSLSHLALKGDQESLLLEGLPGTPQPHRLPLAGTTFHLRQGPDQAQSLEALGPINASLIIMVLAQAELPALHYRFNAPIARDALPPYSWHYAPWTKCSAQCAGGSQVQVVECRNQLDSSAVAPHYCSGHSKLPKRQRACNTEPCPPDWVVGNWSRCSRSCDAGVRSRSVVCQRRVSAAEEKALDDSACPQPRPPVLEACQGPMCPPEWATLDWSECTPSCGPGLRHRVVLCKSADQRSTLPPGHCLPAAKPPSTMRCNLRRCPPARWVTSEWGECSTQCGLGQQQRTVRCTSHTGQPSRECTEALRPSTMQQCEAKCDSVVPPGDGPEECKDVNKVAYCPLVLKFQFCSRAYFRQMCCKTCQGR
B3 was tested, and the binding [3] was “binds”.

B4: near full-length ADAMTS10 (AF: residues 25-1104) (domain or fragment, UniProt P58459 25-1104)
chain: AFRSQDELLSSLESYEIAFPTRVDHNGAMLAFSPPAFRRQRRGAGATTESRLFYKVAAPSTHFLLNLTRSPRLLAGHVSVEYWTREGLAWQRAARAHCLYAGHLQGQAGSSHVAVSTCGGLHGLIVADDEEYLIEPLQGGPKGHRGPEESGPHVVYKRSSLRHPHLDTACGVRDEKPWKGRPWWLRTLKPPPARPLGNESERGQLGLKRSVSRERYVETLVVADKMMVAYHGRRDVEQYVLAIMNIVAKLFQDSSLGNIVNILVTRLILLTEDQPTLEITHHAGKSLDSFCKWQKSIVSHSGHGNAIPENGVANHDTAVLITRYDICIYKNKPCGTLGLAPVGGMCERERSCSINEDIGLATAFTIAHEIGHTFGMNHDGVGNGCGARGQDPAKLMAAHITMKTNPFVWSSCSRDYITSFLDSGLGLCLNNRPPRQDFVYPTVAPGQAYDADEQCRFQHGVKSRQCKYGEVCSELWCLSKSNRCITNSIPAAEGTLCQTHTIDKGWCYKRVCVPFGSRPEGVDGAWGPWTPWGDCSRSCGGGVSSSSRHCDSPRPTIGGKYCLGERRRHRSCNTNDCPPGSQDFREMQCSEFDSVPFRGKFYTWKTYRGGGVKACSLTCLAEGFNFYTERAAAVVDGTPCRPDTVDICVSGECKHVGCDRVLGSDLREDKCRVCGGDGSACETIEGVFSPALPGTGYEDVVWIPKGSVHIFIQDLNLSLSHLALKGDQESLLLEGLPGTPQPHRLPLAGTTFHLRQGPDQAQSLEALGPINASLIIMVLAQAELPALHYRFNAPIARDALPPYSWHYAPWTKCSAQCAGGSQVQVVECRNQLDSSAVAPHYCSGHSKLPKRQRACNTEPCPPDWVVGNWSRCSRSCDAGVRSRSVVCQRRVSAAEEKALDDSACPQPRPPVLEACQGPMCPPEWATLDWSECTPSCGPGLRHRVVLCKSADQRSTLPPGHCLPAAKPPSTMRCNLRRCPPARWVTSEWGECSTQCGLGQQQRTVRCTSHTGQPSRECTEALRPSTMQQCEAKCDSVVPPGDGPEECKDVNKVAYCPLVLKFQFCSRAYFRQMCCKTCQGR
B4 was tested, and the binding [4] was “binds” and the binding [5] was “no binding”.

B5: near full-length RECK (RF: residues 27-942) (domain or fragment, UniProt Q9Z0J1 27-942)
chain: GLAPGSAGAVCCNHSKDNQMCRDVCEQIFSSKSESRLKHLLQRAPDYCPETMVEIWSCMNSSLPGVFKKSDGWVGLGCCELAIGLECRQACKQASSKNDISKVCRKEYENALFSCISRNEMGSVCCSYAGHHTNCREFCQAIFRTDSSPGPSQIKAVENYCASISPQLIHCVNNYTQSYPMRNPTDSLYCCDRAEDHACQNACKRILMSKKTEMEIVDGLIEGCKTQPLPQDPLWQCFLESSQSVHPGVTVHPPPSTGLDGAKLHCCSKANTSTCRELCTKLYSMSWGNTQSWQEFDRICEYNPVEVSMLTCLADVREPCQLGCTNLTYCTNFNNRPTELFRSCTAQSDQGAMSDMKLWEKGSIKMPFISIPVLDIKTCQPEMWKAVACSLQIKPCHSKSRGSIICKSDCVEILKKCGDQNKFPEEHTAESICEFLSPADDLESCIPLDTYLRPSALGNIIEEVTHPCNPNPCPANELCEVNRKGCPSADPCLPYSCVQGCKLGEASDFIVRQGTLIQVPSSAGEVGCYKICSCGQSGLLENCMEMHCIDLQKSCIVGGKRKSHGTSFTIDCNVCSCFAGNLVCSTRLCLSEHSSDDDRRTFTGLPCNCADQFVPVCAQNGRTYPSACIARCVGLQDHQFEFGPCISKNPCNPNLCPKSQRCVPKPQVCLTTFDKFGCSQYECVPRQLTCDQARDPVCDTDHMEHSNLCTLYQRGKSLSYRGPCQPFCRAKEPVCGHNGETYSSVCAAYSDRVAVDYYGPCQAVGVLSEYSAVAECAAVKCPSLSAIGCKPIIPPGACCPLCAGMLRVLFDKEKLDTIAKVTSKKPITVVEILQKVRMHVSVPQCDVFGYLSIESEIVILIIPVDHYPKALQIEACNKEAEKIESLINSDSPTLASHVPLSALIISQVQVSSSLPS
For B5, the binding [6] was “no binding”.
